In paper PMC5515408:
This is one part of the list. At the low end of the ranking the order means little.

target: MAX:MAX (p21) (UniProt P61244-2); assay: protein-binding microarray (anti-MAX antibody); details: PBM: 15 mM Tris-HCl pH 7.5, 100 mM KCl, 0.075% NP40, 7.5 mM beta-mercaptoethanol, 375 ng/ul BSA, 8 ng/ul poly(dA-dT):(dA-dT), 550 ng complex, 60 min, room …; high values mean tight binding; double strand, one strand shown; sequences stand for … in CCGGC…TTAATAGCTAAGATTACTATATCGACG

Sequence	binding signal (log2 normalized fluorescence)
TGATCCCGTGTA	1.51
TGACACGTCGAA	1.45
TGAGCTCGTGTA	2.17
TGATCCTGTGTA	-0.17
TGACACGTGGTA	3.19
TGAACAACTGTA	-0.387
TGAAGCATAGTA	-0.349
TGATCCCGAGTA	-0.715
TGAGGTGTGGTA	0.791
TGGTGCGTGGTA	2.26
TGAGGTCGTGTA	-0.099
TGAAATCTTGTA	-0.976
TGAGCCTCTGTA	-1.13
TGAGGAAGAGTA	-0.942
TGAGGAGCTGTA	-0.888
TGACGCCGGGTA	-0.341
TGACCCGTGGCT	2.46
TGAAATCGGGTA	-0.814
TGAGCGGCTGTA	-0.467
TGATTGGGAGTA	-0.719
TGAAGGTGAGTA	-0.37
TGAAGCTCTGTA	-0.942
TGAACAGTAGTA	-0.749

Sequence	binding signal (log2 normalized fluorescence)
TGAGGTGGGGTA	1.14
TGAACAATTGTA	-0.588
TGAGTCGGTGTA	-1.17
TGAGGGTCAGTA	-0.48
TGAGCTCGGGTA	-1.11
TGAACCATTGTA	-0.372
TGACATATTGTA	0.881
TGACAACATGTA	1.84
TGAAAGTTAGTA	-1.01
TGAAGACCGGTA	-0.351
TGGCACGCGGTC	3.28
TGAACCCACGTA	0.752
CGTCACGTGGTA	3.18
TCAGACGTGGTA	1.39
TACTATGCCATG	0.457
TGACCAGGGGTA	0.376
TGATATGATGTA	-0.575
TGACAGACAGTA	-0.222
TGATTAATGGTA	-0.668
TTACACATGATA	3.07
TGAAAGTTCGTA	-0.908
TGACTGCGTGTA	1.44
TGACTAAATGTA	-0.623

Sequence	binding signal (log2 normalized fluorescence)
TGATGACTTGTA	-0.0419
TGACTTGCGGTA	0.467
TGACAATGGGTA	0.0164
TGAACTGCGGTA	-0.566
TGACAGCTGGTA	1.07
TGATCTGCAGTA	-0.379
TGACTGAGCGTA	-0.505
TGATTCTATGTA	-1.1
TGATCTCGTGTA	2.34
TGATGTATAGTA	0.0267
TGAGGCCGGGTA	-0.931
TGACGTACGGTA	-0.179
TGATGGCTAGTA	-0.159
TGATTATGTGTA	-0.483
TGGCACGTGGTG	3.4
TGATAATTCGTA	-1.14
CGTCACGTGGTT	3.22
TGACCTCAGGTA	-0.119
TGAAATTAGGTA	-1.08
TGATGATGCGTA	-0.181
TGAGGGGGAGTA	1.48
TGAAGTACCGTA	-0.581
TGAACTACGGTA	-0.733

Sequence	binding signal (log2 normalized fluorescence)
TGAGACCTGCTA	-0.292
TGAATCTATGTA	-0.843
TGACAAGCTGTA	0.0955
TGAGACGGGGTC	-0.246
TGAGCCCTGGTA	-0.767
TGATACGTGGTC	1.41
TGAACAATGGTA	-0.315
TGAAAAGATGTA	-0.461
TGAATGCGAGTA	0.25
TGAGAAGAGGTA	-0.834
TTGGTGTACACT	-0.194
TGACGACGTGTA	1.17
TGATAAACCGTA	-0.493
TGATTAGCGGTA	-1.14
TGAACGTCGGTA	-0.0408
TGTCACGTGGTA	3.12
TGAAGAATGGTA	0.22
TGAGGCCCTGTA	-0.901
CGACACGTGCTT	3.21
TGACTCGTTGAA	0.115
AGACACGTGATA	3.29
TGAGACCGTGTA	0.319
TGAACACGAGTA	2.73

Sequence	binding signal (log2 normalized fluorescence)
TGACTACTGGTA	-0.334
TGACACGATCTA	1.3
TGATATCAGGTA	-0.338
TGATAACTAGTA	-1.04
TGAACTGAGGTA	-0.682
TGATTGCGAGTA	-0.512
TGAATATGTGTA	-0.181
TGAGAGTAGGTA	-0.927
TGAATGGTGGTA	0.478
TGAGGGGCGGTA	1.1
TGAGTAAGTGTA	-0.841
AAGGACGTGGTT	2.11
TGATCGGAGGTA	-0.909
TGAATATGGGTA	-0.371
TGACACACGTTA	2.37
TATAACGTGGTA	2.9
TGAAGCCTAGTA	-1.12
TAATACGTGGTA	1.49
TGACACGTTGCG	3.23
TGACACGTGCAA	3.47
TGAACCCAGGTA	-0.34
TGATCCGCCGTA	-1.04
TGACGGAGGGTA	-0.496

Sequence	binding signal (log2 normalized fluorescence)
TGAAGAAGAGTA	-1.08
TGAGATCTAGTA	-1.23
TGACACGTCTCA	1.5
TGATACGTGATA	0.465
TGATGACTGGTA	-0.0453
TGAACCATGGTA	1.06
TGAGCCTAGGTA	-1.22
TGATTTAAAGTA	-1.2
TGATAGACCGTA	-1.06
TGACGCTGAGTA	-0.349
TGACTGGAGGTA	-0.145
TGATTGAGCGTA	-1.01
TGACCTGGCGTA	-0.143
TGAACCTCCGTA	-0.39
TGACTACCCGTA	-0.356
GGACACGGGGTT	3.1
TGAGAAGCAGTA	-0.962
TGACGAGACGTA	-0.279
TGAGACGGCGTA	-0.682
TGAAACACTGTA	-0.0628
TGTTTCGTGGTA	-0.286
TGATCATTTGTA	-0.488
